The other results are listed elsewhere or left out. At the low end of the ranking the order means little. The protein was read in a cell extract, so binding may be indirect.
target: T1, HNF4alpha8 (COS-7 nuclear extract) (UniProt P41235-5); test: protein-binding microarray; conditions: COS-7 nuclear extract on double-stranded Agilent 4x180k PBM; binding buffer, salt, pH and temperature not given; high values mean tight binding; double strand, one strand shown; sequences stand for … in …GCCTAGGGAGATTAGAGTATCGGTCGA
T1 sequence: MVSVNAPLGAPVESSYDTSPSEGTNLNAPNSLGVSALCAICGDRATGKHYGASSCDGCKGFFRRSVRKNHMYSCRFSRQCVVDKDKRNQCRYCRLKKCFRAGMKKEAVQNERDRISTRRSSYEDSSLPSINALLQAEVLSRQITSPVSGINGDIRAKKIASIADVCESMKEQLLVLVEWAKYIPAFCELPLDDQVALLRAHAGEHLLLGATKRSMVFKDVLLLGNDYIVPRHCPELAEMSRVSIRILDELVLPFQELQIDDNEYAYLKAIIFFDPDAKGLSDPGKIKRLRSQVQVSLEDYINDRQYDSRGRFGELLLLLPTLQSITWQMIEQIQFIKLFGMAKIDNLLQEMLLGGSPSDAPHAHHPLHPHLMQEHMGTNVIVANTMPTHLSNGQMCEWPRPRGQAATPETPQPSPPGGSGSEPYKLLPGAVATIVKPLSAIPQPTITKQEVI

Sequence	binding signal (log2 normalized intensity)
AGCCTAGTAAAAGGTAGATACTATAATTAG	-1.18
GCATGGCTCAGTCCAAGTCCAAAGGTCTGA	6.28
CTATCTTTGTAAGTACATTAATATACTGTG	1.89
CTTATCAGCAAGCATTAATCCCTGAGCCTG	-1.33
TTAAAGCATATTTATTCAGGCCCACTGCAG	-1.21
ATCCCAGTTACTCAGCGAATACCAAATTCC	-0.965
ATGCACGTGCTCCAGGAGGGGAGGAGGGTC	3.4
AGCTGTGAACTGACTGGGGTTAACGTCCAA	3.43
CCTATTATTTTATAGAAAAGGAAAGTGAGG	1.22
TGGGGATGCTCAAAGTACACTTGGAGAAAA	0.892
TCACCCTGGTGCTGCTACTTTAGCTGCCAG	-1.35
CAACCTGCTCTTCTCTAAAGTCTGCTATCT	1.26
TGTGATGTGAAGAGTGTGGACTTTCACCTC	8.92
AACATAACAGCAACAACACAGATCATATCA	-1.27
CTTTGACCTCAGAGAGCCGGAAACTCCACC	-0.861
TCCAAAGGTGTCAAGAACATAGCCCTCTAC	-1.28
GCCCACTTTCCTGGGCCGGGGTAGCGCTCT	-1.14
ACATCCTCTCAGGTCAAAGTTTGCCTTGAC	3.22
ATGCTATCTCCCAGTTCTTTTGACCTTTGC	8.5
CAGGTGAGCCCTACTCAGGTTAATCTCAAA	-0.661
CTATGTCAATAGAGCATGAGAACTTCTTCC	-1.07
CTCTCCACCCCCATGCAAGTTCCCACAGAG	4.72
CCTGATAATGACTCTTGAACCACAGTCCCC	1.63
TTTCTTTGTACTGCTTCCAAAACATTGTAG	-0.0169
GAGGCTGAAGTGAAGTTACAAAGGTCACAC	6.46

Sequence	binding signal (log2 normalized intensity)
AGATCAGATGGGGTGAACTTTGGACCACAT	8.04
GAGGGGTCTGAGCACATCACACAGGCATAT	-1.32
ACAGTAACCCTTGAGCTCTGCACAGCACAA	-1.17
GCACCAGAGCAGGACTGATATCCTGGGCTT	-1.18
TAGTACTCTGCCATGTGCTATTCTGTCTCC	0.737
CTTAAGTCTGAATTCTAGTCCTATCACTGT	0.249
CATCACACTCCTACCCATTCTTCAGAGGCA	-1.32
ACCTCCACCAGATAGCAAGGAGACATCGCT	-1.28
CAAGAATTGGAACCCTGCTGTCCATAGACA	-1.42
AGATGCCAGGAGAGCCGAAGCAGTCAAATG	-1.37
TCCATTCTCACTGACTCACGGCAGCTTGTA	-1.24
TGGACCATTGCTGACCTTGCCTCTGTGCTC	1.8
GGAAGTCCAGCATTCTTTTCCCCATACCAG	0.799
TGACCCTTGCACTGTAAGATCAAGATTAAG	3.95
AAGAAAAAACAAAAAGATGGTCTTACAACA	-0.886
ACCGAGCAGCTCTTTACAAAGCCCATGCTG	-1.42
CTGGTCGACCTCCCCGTCACCCTCCCCGCC	5.78
TTGACCACCTACTGTTTGTGCAGAGGAGAT	0.828
TCTACACTGCTTACCCTGCAGTGTGACCTT	4.68
GGCTCAGGTAAAGGCATGCTTGGCATCCCT	-1.12
GGCCAAATCAGAACTGAGTTACTTGTGCTA	-1.28
CAAGAGGCTTCTTATCAGCAGCTGGGGTGA	0.485
GATAAGGATGGATCAAAGGAAACTGCTTGG	-1.2
CTCCCCCTCCTGCCCTATGTCCTCCAGCTC	4.16
TGCTGGGGGCTGGGCCCCACAGTGCATCTG	-1.21

Sequence	binding signal (log2 normalized intensity)
AAACCATCCCAGGCATCCAGGCCAGTGGGG	-1.15
TGTGTTGCACTGTTTGCATAAAGTTAAACT	0.142
CTGAACCTTGTCCCACTCTTGGGTCAACAT	3.01
GTCACGTGGGTCCAGGGTCACGTGCCGCTG	1.45
AGATAGCTGTTAAATGGAGTGGAATTTGGA	3.36
AGTACCTCTCAAAAATCTCACTCACCCTAA	-1.38
CTACAGCCTGATGTTGACAGAGCTCCCATC	-1.27
AAAGTCAACACTTAGGGTGGATACTTTGAC	0.31
CACAGTGTTATTTGCTGAGGTGGGGGAGGT	0.772
AGGAATATTAGTTTAACTCCTAGGTAATTT	-1.01
GGTATGTTAGATTAGTGTGCAGCTTTGTGT	1.72
TTAAGCAGATGTTTCTGCAAGCACACTGTC	-1.18
TAAGGAGCTGAGTCATAGTGGACTTTGCCT	7.86
GTCCTTCCCCCGCCAGATGTTTTTACCCTG	2.88
TGCCTTATCTGGTTCAAAGGTCATTTCTGC	7.61
TACCCTGAGGGACTCACTATCTTGAGGCTG	-1.31
ATTTATTAACTGGAGATAACACAACCCCTA	2.41
AAAAGTCTACCTTTGGCCTGGGGATTTACT	1.67
GTAACAGTTGCAGCTTCAGGAGCTGCAGGG	-1.16
GAATGCGCTTTCATGAGATGAAAGCTTCTG	-1.32
GCAAACCTCCCCAGCCCAGGTGGCTGCATC	0.909
ATAAAAGAGAAGATAATGGATTGGGGGCCA	-1.36
AGATCTCAAAGTCCAAATAGCGCTAACTCT	3.33
GACATGTTTCTAACTGCCCGCATTCTGTTC	1.8
GAAGTGGGGTAAGCAAGGCTCTTAGCAGAA	-1.44

Sequence	binding signal (log2 normalized intensity)
CCCCCACCACAAAGCAGTGAGTGAAACATC	2.28
AGGAACCTGTTTTACAGGACATAGTCCTCT	0.897
CCTGTTTACAATGGAAAGATTAGGTCAAAG	1.48
AGCCTGAGGCAGTTGGAAAATATTTCTCTG	-1.24
TTCAGCTAGCTGAGTGAGTAGGTTCTCAGC	-1.16
GCCCCCAGCCAGGCCCCAGGCCAACCGGTT	5.24
GGGGCCACCTTTTCAGCTTCCTCCTGCGTC	-1.24
GCCTGTGACAAAGTCCATCTGGGCAAGGTG	4.17
CAGGGTCCAACCCACAGGGGTAGAAGCTGA	-0.939
CTGAGGAAAGGAAGATGCACATTCCCTCCA	-1.33
AAACATAGAAAGGAGTACACACCATAAGAG	-1.3
ACCTTCCATTACCACATTCTCACCACTAGG	-0.686
CAACTATAGAAAGCCTTTGAACTGTGTTGC	2.21
AGGTGGAGACCTCTGCAGGAGGACTGGATC	-0.956
TTGCTGGTCAAGCTAAGCACAACTGATTCT	-1.2
ATTCACATCTCCAGTTCCAAAGTCCAGGTG	6.55
AAACCTACACAGACCCTCTTTTCTTTGTAC	1.09
TCTTCATTTCCCTCATGCAGGGAGGTCAAA	3.16
GGCAAAACACCCCTTTCACTTCTTCCCCTC	3.61
ATTGTGAAACGTTTGAATTCTTGCCTATCC	-0.841
CTGTGTGGGAAGAGGGCCTAGGGCAGATCC	-1.28
TAACCTGCAGTTTCCCTATTCTCAGTGATA	-0.292
GAAATTTCCTCTTACCACATCTCAACCTTT	3.82
GAATTGGGACCTGAGAACATGTAATCATTT	0.552
AGACTCAGCATGTCTTCTGACCTTTGGCAA	6.98

Sequence	binding signal (log2 normalized intensity)
ACTTCAAGGGAGTAAAGGTCGTTCTATCGG	4.85
TTGCAACCAAAGGAGTCCTGGCTGACAGAT	-0.977
GCCTAACTTTGATAGGCACAATCAGCAAAC	-1.26
GGGGATGAAGGGGGCGGGGGCGAAAGGGAG	-1.4
CGGACGTGTTCCCACAGTGCCCTCTATTGG	2.88
TCACCCACCAGAGGGAACGCCCGACGCGAA	-1.37
CCACAACCTACCCTTTGCCCTGGACATATT	3.27
AGCCTCAAAGATCAAAGGTAGATGAATCCA	1.5
ACATAGTCCCTGCACAGGTTCCTCGCCTAT	-1.36
GCTTGCAAGACTGCATTCTCTAGATGTCCC	0.707
GAGAGGAGCAGGGTATCAGTTGAACAGAAT	-1.38
ACCCAGGCATATCCAACCTTCTCCCACTTC	-1.33
AGGCCCCAGCCACGCCCTCTAACCCAGGTT	3.05
CGGCCGCTCCCTCCCCTCCTCCCTTGCTCA	4.26
GTCAGTCATACAGAGCTGTCACGCAGTGTT	-1.18
TCTGTCCTTTGTCCCACATCTGTGAAGATA	1.44
GGGCTCTCAGAATCTGCCGATCACTGGCCC	-1.22
TTTTGCCTTGCATCAGAATCTGGACAGTGT	1.41
AGCTGCAAAGGCACAGATCATATGGCCCAC	-1.42
TAATCTCAAAGTGTCAGTCCAGAGTTTGTG	1.32
CATGCACCTGCGGATAATCAAAGGTTGGTC	2.16
TTCAAAGGCTCCCCTAATCCCTGTGACATT	2.32
CTAAAGGCTGTGTCGGTATAAGTTCTACAT	0.312
AAGGCAGGAGAATCGCTTGAACCCAGGGGA	-1.15
TTCTGAGAGTGGCAAGCAGGAGCTGGCCTG	-1.32

Sequence	binding signal (log2 normalized intensity)
AGAAAGGTCTAAAAGTAGCTGTTGGAATTT	2.16
TCCACATGTGGGGAAACTGGACTGTAATTT	2.24
AGCAATGTTTCTTGTCCAGGGACTTTGAAC	6.55
GCAGAGGCTGCAGAGGTTTCGCAAGGACGT	-1.18
GACATAAAATTAAAGCGGACGGGCTGCGGA	-1.33
CCACCACAAACCCTTCATCCAGCTGTGCTT	-1.19
TGACCCTTGAACAATGTGGGGGTCGGGGCA	2.97
GTTTTACAAACACAATGGAAGGCTGTATGT	0.119
TGAAACAGTGGGCAATATGAAGGGGAAAAA	-1.48
TATTCAGTCCCCCATCCCAGAGGTCAAACT	5.57
TACACAAGTAGAATGAAAGCGGCTCAGGAA	-1.22
AGTGGGAGGTGGAAGTGGCAGATTAGAGAC	-1.2
GTGGAGGATTTGGGTGATGTTTGGTTAAGA	1.1
CCTCCGCTCCGCCGGACCGGCCAAACTGGT	-1.18
CCTTTCATGTTGAACGTCTTCAGAAACTAA	0.814
CTGTGTTATGCTTGCAGGTGTCAGGGGTCA	4.84
CCATTGTTATCTGATCAAATTCCACACCCC	3.2
GCACAACATACTTGGAGACAGTCACTCCCA	-1.42
ACTGGTTTTTCTTGGGTGTATGGGTATAGG	2.21
AGCCTAGGGTGAGGTGTTCGGGGGACGGAG	-1.2

— PMC10726135
